Assay results as given in PubChem BioAssay AID1030 (National Center for Advancing Translational Sciences (NCATS), 2008).
Among all 220,000 compounds or so, about 16,000 (7.3%) were called active. Inconclusive means that the source gave no clear call. Such entries were picked first, then a sample of the others. Calls follow the shape of the dose curve; as a rule, active = well fitted inhibition curve with a large enough effect (not every such curve was filed as active); inconclusive = small, poorly fitted or top-dose-only effect, or another doubt; inactive = no such curve, though single readings can be large or run the other way. Potencies of inconclusive entries are left out as doubtful fits.
Potency is read from the fitted curve at half-maximal effect; tags tell the direction and shape of the fitted curve.

What follows are compounds tested against Aldehyde dehydrogenase 1A1 (Homo sapiens) (UniProt P00352) (assay: qHTS Assay for Inhibitors of Aldehyde Dehydrogenase 1 (ALDH1A1)). Details: Purified ALDH1A1, NADH fluorescence, propionaldehyde substrate; series mostly up to 75.3 µM.
UniProt P00352, sequence (P00352 whole entry, looked up): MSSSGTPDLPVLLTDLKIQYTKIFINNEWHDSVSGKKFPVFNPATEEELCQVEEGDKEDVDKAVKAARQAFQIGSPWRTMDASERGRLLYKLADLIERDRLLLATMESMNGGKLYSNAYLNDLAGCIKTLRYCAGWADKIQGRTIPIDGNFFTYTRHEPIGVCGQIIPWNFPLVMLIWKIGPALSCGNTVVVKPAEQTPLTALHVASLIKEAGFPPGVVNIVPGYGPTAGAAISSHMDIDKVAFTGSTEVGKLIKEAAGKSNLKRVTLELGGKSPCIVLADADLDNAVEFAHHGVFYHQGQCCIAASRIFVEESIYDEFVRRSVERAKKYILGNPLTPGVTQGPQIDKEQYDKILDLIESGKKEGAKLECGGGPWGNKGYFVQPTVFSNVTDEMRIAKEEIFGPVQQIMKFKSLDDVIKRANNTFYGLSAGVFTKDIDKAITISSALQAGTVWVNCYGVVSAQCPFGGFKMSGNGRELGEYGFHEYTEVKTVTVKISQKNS
NC(CCC(=O)NCS(=O)(=O)O)C(=O)O (stereo not given) was tested, and the Potency was “inactive”. COc1cccc(CN(C)C(=O)c2csc3c2CCCC3)c1OC was tested, and the Potency was “inactive”. In the case of Cc1ccc2nc(-c3ccncc3)c(Nc3ccccc3)n2c1, the Potency is reported as inconclusive [inhibitor, partial curve]. O=C(CSc1nc2ccccc2[nH]1)NCc1ccc2c(c1)OCO2 was tested, and the Potency was “inactive”. In the case of O=C(c1ccc([N+](=O)[O-])s1)N1CCc2ccccc2C1, the Potency is reported as inconclusive [inhibitor, single point]. For COc1ccc(C(=O)NC(=S)NC(C)(C)C)cc1Br, the Potency was inconclusive [inhibitor, single point]. In the case of CCCC(=O)NC(=S)Nc1ccc(N2CCOCC2)c(Cl)c1, the Potency is reported as “inactive”. With CN(c1ccc(C(=O)Nc2ccc(S(=O)(=O)N3CCCC3)cc2)cc1)S(C)(=O)=O the Potency was inconclusive [inhibitor, partial curve]. For Cc1ccc(C(=O)Nc2cccc([N+](=O)[O-])c2)cc1S(=O)(=O)Nc1ccc(C(=O)O)cc1, the Potency was inconclusive [inhibitor, single point]. In the case of CCOC(=O)c1c(NC(=O)c2ccc(N3C(=O)[C@@H]4[C@H](C3=O)[C@H]3C=C[C@@H]4C3)cc2)sc2c1CC(C)CC2 (stereo not given in full), the Potency is reported as inconclusive [inhibitor, single point]. With O=C(Cn1c(-c2ccccc2)noc1=O)Nc1ccc(N2CCCCCC2)cc1 the Potency was inconclusive [inhibitor, partial curve]. In the case of COc1ccc(NC(=O)N(Cc2cc3cc(OC)ccc3[nH]c2=O)CC2CCCO2)cc1 (stereo not given), the Potency is reported as inconclusive [inhibitor, partial curve]. In the case of CCN1CCN(C(c2cccs2)C(C)NC(=O)c2ccccc2F)CC1 (stereo not given), the Potency is reported as “inactive”. COc1ccc(/C=C/C(=O)c2oc3ccc(F)cc3c2C)cc1 was tested, and the Potency was inconclusive [inhibitor, single point]. For CCOC(=O)CC(NS(=O)(=O)Cc1ccccc1)c1ccc(C)cc1 (stereo not given), the Potency was “inactive”. N[C@@H](C(=O)O)c1ccc(O)c(C(=O)O)c1 was tested, and the Potency was inconclusive [inhibitor, partial curve]. For O=C(O)c1ccccc1-n1c2ccccc2c2ccccc21, the Potency was inconclusive [inhibitor, single point]. For COc1ccc2[nH]cc(/C=C/C(=O)c3ccccc3)c2c1, the Potency was inconclusive [inhibitor, partial curve]. With O=C(C(NS(=O)(=O)c1cccs1)c1ccccc1)N1CCN(c2ccccc2)CC1 (stereo not given) the Potency was inconclusive [inhibitor, single point]. For CC(C)C(C)NC(=O)COc1ccc(S(=O)(=O)N2CCOCC2)cc1[N+](=O)[O-] (stereo not given), the Potency was inconclusive [inhibitor, single point]. With O=P(COCCOCP(=O)(c1ccccc1)c1ccccc1)(c1ccccc1)c1ccccc1 the Potency was inconclusive [inhibitor, single point]. O=C(OCC(=O)N1CCCCC1)c1cc2ccccc2cc1O was tested, and the Potency was “inactive”. COCCN1C(=O)CS/C1=C(/C#N)C(=O)NCc1ccco1 was tested, and the Potency was inconclusive [inhibitor, partial curve]. With CCC(=O)Nc1cccc(C(=O)/C=C/c2cccs2)c1 the Potency was inconclusive [inhibitor, single point]. For O=C(Nc1nccs1)c1ccc(CSc2nnnn2-c2ccccc2)cc1, the Potency was inconclusive [inhibitor, partial curve]. In the case of Cc1ccc(N2CCN(C(=O)N3CCCC3)CC2)cc1Cl, the Potency is reported as inconclusive [inhibitor, single point]. For C=C(C)C1CC=C(C)/C(=N/NC(=O)c2ccc(NC(=O)c3cccc(C)c3)cc2)C1 (stereo not given), the Potency was “inactive”. c1ccc(C2CCC3(CC2)Oc2ccccc2C2CC(c4cccnc4)=NN23)cc1 (stereo not given) was tested, and the Potency was inconclusive [inhibitor, single point]. In the case of COC(=O)COc1ccc2c(=O)c(-c3ccccc3)coc2c1, the Potency is reported as inconclusive [inhibitor, single point]. With Cc1ccc2c(c1)c(CC(=O)Nc1ccc(F)cc1)c(C(=O)O)n2C the Potency was “inactive”. C=CC(C)Sc1nc2c(c(=O)n(C)c(=O)n2C)n1Cc1ccccc1Cl (stereo not given) was tested, and the Potency was inconclusive [inhibitor, partial curve]. Cc1cccc(Oc2nc3ccccn3c(=O)c2/C=C(\C#N)C(=O)NC2CCS(=O)(=O)C2)c1 (stereo not given) was tested, and the Potency was inconclusive [inhibitor, full curve]. O=C(O)c1cccc(NC2=C(Cl)C(=O)c3ccccc3C2=O)c1 was tested, and the Potency was active: 31.6 µM. With CCOC(=O)Cn1cnc(-c2ccc([N+](=O)[O-])cc2)c1 the Potency was “inactive”. With CCOC(=O)CC(=O)CSc1nc(C)cc(-c2cccnc2)c1C#N the Potency was “inactive”. In the case of COc1ccc(NC(=O)COC(=O)c2c(-c3ccccc3)noc2C)cc1, the Potency is reported as inconclusive [inhibitor, single point]. C=CCn1c(O)c(N=Nc2ccccc2C)c2ccccc21 was tested, and the Potency was active: 2.82 µM. In the case of O=C(Nc1nccs1)C(NS(=O)(=O)c1ccc(Br)s1)c1ccccc1 (stereo not given), the Potency is reported as inconclusive [inhibitor, single point]. For O=C(c1cc2ccccc2oc1=O)N1CCSC1c1ccco1 (stereo not given), the Potency was inconclusive [inhibitor, single point]. In the case of Cc1ccccc1C(=O)Nc1ccccc1-c1nnn(CC(=O)Nc2ccc3c(c2)OCCO3)n1, the Potency is reported as inconclusive [inhibitor, single point]. For Fc1ccc(-c2csc(=S)[nH]2)cc1, the Potency was active: 3.55 µM. For CCCS(=O)(=O)c1nc(S(=O)(=O)c2ccc(C)cc2)c(NCCCN2CCOCC2)s1, the Potency was active: 14.1 µM. For COCc1cc(C)nc(N2CCNCC2)c1C#N, the Potency was inconclusive [inhibitor, single point]. In the case of O=C(CS(=O)(=O)Cc1ccccc1)N1CCc2ccccc2C1, the Potency is reported as inconclusive [inhibitor, single point]. With Cc1ccc(NC(=O)NC(=O)N(C(C)C)S(C)(=O)=O)nc1 the Potency was inconclusive [inhibitor, partial curve].
